These results are taken from the supplement of paper PMC3334620.

The full ranking holds about 33,000 sequences; the median of “E-score (-0.5 to 0.5)” is about -0.012, and the highest 2% start at about 0.29. The list shows a part of the results.

The target in the assay is T1, Ybr033w (UniProt P38073).
T1 sequence: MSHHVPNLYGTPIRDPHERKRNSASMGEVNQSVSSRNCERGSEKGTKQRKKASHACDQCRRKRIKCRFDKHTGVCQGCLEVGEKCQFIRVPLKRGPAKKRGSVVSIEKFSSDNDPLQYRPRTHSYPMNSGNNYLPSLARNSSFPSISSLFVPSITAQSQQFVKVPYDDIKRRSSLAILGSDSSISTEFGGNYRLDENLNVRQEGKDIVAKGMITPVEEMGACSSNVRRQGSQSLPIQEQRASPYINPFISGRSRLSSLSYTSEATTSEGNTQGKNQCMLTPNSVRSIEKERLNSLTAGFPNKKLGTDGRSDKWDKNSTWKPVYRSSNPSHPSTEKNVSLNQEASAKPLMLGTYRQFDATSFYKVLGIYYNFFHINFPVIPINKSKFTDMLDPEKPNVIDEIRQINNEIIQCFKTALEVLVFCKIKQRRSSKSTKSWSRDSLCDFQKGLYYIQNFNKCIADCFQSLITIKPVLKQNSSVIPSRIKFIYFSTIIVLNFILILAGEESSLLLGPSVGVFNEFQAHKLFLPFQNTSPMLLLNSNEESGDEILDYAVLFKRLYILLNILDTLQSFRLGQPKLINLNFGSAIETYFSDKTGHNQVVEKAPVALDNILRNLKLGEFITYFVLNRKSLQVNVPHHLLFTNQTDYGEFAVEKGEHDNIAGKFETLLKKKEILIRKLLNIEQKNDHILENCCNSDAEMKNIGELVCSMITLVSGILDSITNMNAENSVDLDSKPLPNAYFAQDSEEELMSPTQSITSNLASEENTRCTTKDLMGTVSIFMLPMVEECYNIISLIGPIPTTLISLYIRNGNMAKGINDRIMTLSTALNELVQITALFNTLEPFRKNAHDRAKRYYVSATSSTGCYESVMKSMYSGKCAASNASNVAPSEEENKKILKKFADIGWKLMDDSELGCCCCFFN
The experiment in a line: PBM E-score (8-mer binding enrichment) (E-score (-0.5 to 0.5)); higher = stronger / more preferred TF binding; most listed sequences are background and not binding sites. To be noted: protein concentration: 200 nM; construct: GST-full length. In short, it runs like this:
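Universal all-10-mer Agilent arrays, double-stranded by primer extension on fresh or once-stripped slides, were probed with about 100-200 nM GST-tagged yeast transcription factors made by PURExpress. Fluorescent anti-GST detected bound protein, and masliner normalised the scans. E-scores from the Universal PBM Analysis Suite were given to each ungapped eight-base word pooled with its reverse complement.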
For AGCAGCCG, the “PBM E-score” value was -0.0763.

As for AGAATGCG, the “PBM E-score” value was -0.0351.

In the case of ATCTCGCA, the “PBM E-score” value was found to be 0.0867.

Take TCAGCCAA: the “PBM E-score” value is 0.07.

With AAGTGACC, the “PBM E-score” value is -0.114.

In the case of ATGTTGGC, the “PBM E-score” value was -0.0279.

Take CGAAGGCA: the “PBM E-score” value stood at 0.0306.

CGCGTCAC: the “PBM E-score” value is -0.0843.

In the case of CTCTTGGC, the “PBM E-score” value was -0.203.

As for CCTTTGAC, the “PBM E-score” value is -0.147.

Regarding GAAGCTGC, the “PBM E-score” value came out at 0.0103.

Consider CCAACTTA, for which the “PBM E-score” value was 0.0701.

As to GCCATTGA, the “PBM E-score” value was determined as 0.152.

For the sequence ATTTCAGG, the “PBM E-score” value turned out to be 0.0825.

Turning to CGCACTGA, the “PBM E-score” value was -0.137.

As to ACAGGACA, the “PBM E-score” value worked out at 0.139.

Consider GCTAAGGA, for which the “PBM E-score” value is -0.106.

In the case of ACCCGCCG, the “PBM E-score” value is 0.0442.

With CGACAGCG, the “PBM E-score” value was -0.0586.

For the sequence TACGAATA, the “PBM E-score” value came out at 0.238.

On to AGGCATTG, for which the “PBM E-score” value was -0.118.

Turning to ACACCCAA, the “PBM E-score” value worked out at 0.0863.

AGTATCGA: the “PBM E-score” value was 0.176.

For the sequence GGACACTA, the “PBM E-score” value is -0.179.

Regarding ACTTTTGC, the “PBM E-score” value turned out to be 0.172.

Consider ACCTGTTA, for which the “PBM E-score” value is -0.0213.

In the case of CTCACCGA, the “PBM E-score” value came to 0.00035.

Take GTACCTAC: the “PBM E-score” value is -0.178.

Turning to AGACTAGC, the “PBM E-score” value was -0.208.

For the sequence CTAGCGTA, the “PBM E-score” value was -0.25.

Regarding AAGTTGCT, the “PBM E-score” value stood at 0.0671.

For the sequence TCCTGGAA, the “PBM E-score” value was 0.0317.

For the sequence GATGTATA, the “PBM E-score” value was found to be 0.227.

Take ACTACTCC: the “PBM E-score” value is 0.0891.

CCCACACC: the “PBM E-score” value is -0.131.

On to GGTGTTCA, for which the “PBM E-score” value is -0.0763.

On to AGGTGACC, for which the “PBM E-score” value was -0.222.

CGAGCTGA: the “PBM E-score” value was 0.0131.

AGCAGCAT: the “PBM E-score” value was -0.0509.

On to AATCGAGC, for which the “PBM E-score” value is -0.0323.

Regarding ACACCAAG, the “PBM E-score” value was 0.0498.

CTGACGGA: the “PBM E-score” value worked out at 0.00252.

Take CCAAGGGA: the “PBM E-score” value was -0.0642.

With ACCGACGC, the “PBM E-score” value was -0.132.

On to CCGCGTAC, for which the “PBM E-score” value is -0.0588.

Consider AACTTCTG, for which the “PBM E-score” value is 0.0469.

On to CCTTCACA, for which the “PBM E-score” value was 0.0915.

Regarding CACGGCGA, the “PBM E-score” value was -0.0518.

Regarding ATGAATCG, the “PBM E-score” value was -0.041.

As to GAAAGCAC, the “PBM E-score” value was 0.101.

Take GATTACGA: the “PBM E-score” value was 0.169.

On to AGCGGGAC, for which the “PBM E-score” value is -0.315.

For ACACTTAG, the “PBM E-score” value came to 0.0216.

For GCAGTGGA, the “PBM E-score” value was found to be 0.0557.

For the sequence GACTGCCC, the “PBM E-score” value is -0.243.

As to GATGGAGC, the “PBM E-score” value was -0.0687.

With AAGGCTAA, the “PBM E-score” value turned out to be 0.0695.

In the case of ACATTCTG, the “PBM E-score” value turned out to be 0.0795.

As to CAAGAGTC, the “PBM E-score” value amounted to 0.028.

In the case of CCCAGATC, the “PBM E-score” value is -0.261.

With GTTTGTAA, the “PBM E-score” value came to 0.209.

As for CAGACAAA, the “PBM E-score” value is -0.029.

As to CACTGGGG, the “PBM E-score” value was -0.275.

For the sequence ATGGAAAC, the “PBM E-score” value is -0.0483.

With GCATAACC, the “PBM E-score” value turned out to be 0.00111.

As for ATACCCGG, the “PBM E-score” value was -0.222.

On to CCTGCAGA, for which the “PBM E-score” value is -0.14.

As for GCGTCGTA, the “PBM E-score” value amounted to 0.104.

As to CACAATGC, the “PBM E-score” value stood at 0.181.

Consider AACCGCCC, for which the “PBM E-score” value was -0.124.

As for CTACACAA, the “PBM E-score” value turned out to be 0.137.

GGCACCCA: the “PBM E-score” value is -0.139.

Consider CCTCCATA, for which the “PBM E-score” value was -0.0725.

Consider ATAGCCGG, for which the “PBM E-score” value was -0.0746.

CCTAACTA: the “PBM E-score” value came out at 0.221.

For CGCTCCCA, the “PBM E-score” value is -0.0614.

Consider CGAGTTAG, for which the “PBM E-score” value is -0.123.

For GACAGGGA, the “PBM E-score” value was -0.0395.

As for AAAGCGTT, the “PBM E-score” value was 0.036.

For the sequence CCCGTAGG, the “PBM E-score” value is -0.276.

As to ATGGCCCG, the “PBM E-score” value was -0.153.

Turning to AAGGCTCA, the “PBM E-score” value was -0.127.

Turning to AAGTTGCC, the “PBM E-score” value was -0.108.

With GCTGACAC, the “PBM E-score” value is -0.164.

Regarding ACATCATG, the “PBM E-score” value is -0.0496.

With CATTCGTA, the “PBM E-score” value came to 0.0238.

As for AGGGGTCA, the “PBM E-score” value was -0.115.

Take TACTCTAA: the “PBM E-score” value is 0.145.

For the sequence CAGGCGAA, the “PBM E-score” value is -0.0707.

As to AGCGGGGG, the “PBM E-score” value is -0.41.

On to AATAGTAA, for which the “PBM E-score” value was found to be 0.239.

On to GCGATAAA, for which the “PBM E-score” value is 0.0393.

As to CGGCGAGC, the “PBM E-score” value was -0.204.

Consider ACTGGGAG, for which the “PBM E-score” value was -0.215.
